From PubChem BioAssay AID602332 (National Center for Advancing Translational Sciences (NCATS), 2012)
About 75 (0.02%) of roughly 420,000 compounds were called active. This list was built around the results that the source calls inconclusive (neither active nor inactive); the mix of calls is not that of the screen. Calls follow the shape of the dose curve; as a rule, active = well fitted activation curve with a large enough effect; inconclusive = small, poorly fitted or top-dose-only effect; inactive = no such curve, though single readings can be large or run the other way. Where the call is inconclusive, the potency comes from a doubtful curve fit.

Test: qHTS for Inducers of the Endoplasmic Reticulum Stress Response (ERSR) in Human Glioma: qHTS; also: nearly all actives have a fitted effect of over 35% in size; as to activation: % of control where 0% means no effect
Conditions: U87-MG GRP78 promoter luciferase reporter, 16 h; activation: stronger effect = higher value
From the text: Primary protein unfolding takes place for many diseases, including diabetes and hypoxia, , and triggers a reaction in the cells called ER stress response (ERSR). ). ERSR is designed as a repair mechanism, but ultimately leads to cell death via apoptosis if conditions triggering protein unfolding persist (1). The molecular clue to ERSR activation is the enhancement of the expression of key molecular chaperones, including the glucose regulated protein (GRP) 78. GRP78 is the main sensor for protein folding and the main actuator of the ERSR.
In a collaboration between the Southern Research Institute and the NIH Chemical Genomics Center, a cell based screen was developed that reliably uses GRP78 as a sensor to identify small molecules as inducers of ERSR. In resting conditions, GRP78 binds proteins and acts as a natural repressor. Once unfolded proteins are present in the ER, GRP78 releases some of the repressors and binds to the unfolded proteins. The release of the repressors executes the ERSR program. Using a human glioma cell line in a miniaturized, luminescent format, a high-throughput screen was developed to identify actuators of the ERSR.
(1) Soboloff, J. and S. A. Berger (2002). "Sustained ER Ca2+ depletion suppresses protein synthesis and induces activation-enhanced cell death in mast cells." J Biol Chem 277(16): 13812-20.
NIH Chemical Genomics Center [NCGC]
NIH Molecular Libraries Probe Centers Network [MLPCN]
Assay Submitter (PI): Maurizio Grimaldi, Southern Research Institute
Stable transfected human glioma cell line, U87-MG, are dispensed at density 1000 cells/well into Greiner white solid bottom 1536-well assay plates. Compounds are transferred via Kalypsys pin tool equipped with 1536-pin array (10nl slotted pins, V&P Scientific, San Diego, CA). The assay plates will be incubated for 16 hours and developed by adding appropriate quantities of the Promega Bright Glo reagent. The plates will be incubated at room temperature for 10 minutes prior to being transferred into a ViewLux high-throughput CCD imager (PerkinElmer), wherein end-point measurements of luminescence are acquired.
Potency is read from the fitted curve at half-maximal effect; tags tell the direction and shape of the fitted curve.

Structure (SMILES)	Potency	activation
CCOC(=O)c1cnc2c(F)ccc(F)c2c1Sc1ccccc1	inconclusive: 28.2 µM [activator, full curve, poor fit]	–
COC(=O)c1ccc(Cl)cc1N(Cc1c(F)cccc1Cl)S(C)(=O)=O	–	inactive: -2.65%
Cc1ccc(SCCC(=O)NCC2CCCO2)cc1 (stereo not given)	inconclusive: 44.7 µM [activator, single point]	–
O=C(/C=C/c1cn(-c2ccccc2)nc1-c1ccccc1)Nc1ccc(C(=O)O)cc1	inconclusive: 10 µM [activator, partial curve, poor fit]	–
COc1ccc(-c2nc3sc(CCNS(=O)(=O)c4c(C)cc(C)cc4C)c(C)n3n2)cc1	–	inactive: -1.84%
CCOC(=O)C(NCc1ccc2c(c1)OCO2)(NC(=O)CC)C(F)(F)F (stereo not given)	inconclusive: 50.1 µM [activator, single point]	–
COc1cccc(CNC(=O)CCc2cn(Cc3ccccc3Cl)c3ccccc23)c1	–	inactive: 0.096%
O=C(CSc1nnc(Cc2cc(=O)[nH]c(=O)[nH]2)n1-c1ccc(F)cc1)N1CCCCC1	inconclusive: 28.2 µM [activator, single point]	–
CN(Cc1nccs1)C(=O)c1cc(COc2cccc3cnccc23)on1	–	inactive: -2.31%
N#Cc1ccccc1/C=N/Nc1nc(-c2ccccc2)c2cc(Br)ccc2n1	inconclusive: 44.7 µM [activator, single point]	–
CCc1cc2c(=O)n(Cc3ccco3)c(SCc3c(C)noc3C)nc2s1	inconclusive: 50.1 µM [activator, single point]	–
CCCCOC(=O)CSc1nnc(-c2cc(OC)c(OC)c(OC)c2)o1	active: 12.6 µM	–
Cc1ccc(C(=O)O)cc1-c1ccc(/C=C2/NC(=O)N(c3ccccc3)C2=O)o1	inconclusive: 63.1 µM [activator, single point]	–
CCOc1ccc(S(=O)(=O)Nc2cc(SCC(=O)O)c(O)c3ccccc23)cc1	inconclusive: 7.94 µM [activator, partial curve, poor fit]	–
CCOC(=O)COc1cc(-n2c(=S)[nH]c3ccccc3c2=O)c(Cl)cc1Cl	inconclusive: 44.7 µM [activator, partial curve, poor fit]	–
CCCCCCC#CC1C=CC(OC(=O)OCC)C(COC(=O)OCC)O1 (stereo not given)	inconclusive: 11.2 µM [activator, single point]	–
CC(C)OC(=O)c1cccc(NC(=O)c2ccccc2)c1	inconclusive: 10 µM [activator, partial curve, poor fit]	–
COc1cccc(CNC(=O)C23CN(Cc4ccccc4)CC2C(c2ccc([N+](=O)[O-])cc2)=NO3)c1 (stereo not given)	–	inactive: -2.48%
O=S(=O)(NC1CCCCC1N1CCCCC1)c1ccccc1 (stereo not given)	–	inactive: -1.85%
Cc1nc(SCc2nc3c(O)cccc3[nH]2)c2oc3ccccc3c2n1	inconclusive: 44.7 µM [activator, partial curve, poor fit]	–

Structure (SMILES)	Potency	activation
O=C(CSc1ncccn1)N/N=C/c1cccs1	inconclusive: 12.6 µM [activator, single point]	–
Cc1ccccc1CNc1ncnc2c1ncn2C1OC(CO)C(O)C1O (stereo not given)	inconclusive: 46.5 µM [activator, partial curve]	–
CNc1ccc(Br)cc(C(=O)/C=C/c2ccc3c(c2)OCO3)c1=O	inconclusive: 14.1 µM [activator, single point]	–
CC[C@H](C)[C@@H](CO)NC(=O)[C@H]1O[C@@H](n2ccc(=O)[nH]c2=O)[C@H](O)[C@@H]1O	–	inactive: -1.98%
CCOC(=O)Cn1c(=O)oc2cc(S(=O)(=O)NCCC(C)C)ccc21	inconclusive: 50.1 µM [activator, single point]	–
Cc1cc(OCC(=O)N2CCOCC2)ccc1[N+](=O)[O-]	inconclusive: 2 µM [activator, partial curve, poor fit]	–
COc1ccc2c(c1)c(CC(=O)O)c(C)n2C(=O)c1ccc(Cl)cc1	inconclusive: 14.1 µM [activator, full curve, poor fit]	–
O=C1/C(=C/c2ccccn2)COc2ccccc21	inconclusive: 50.1 µM [activator, single point]	–
CC1CCc2sc(C(=O)NCc3ccccn3)cc2C1 (stereo not given)	inconclusive: 14.1 µM [activator, single point]	–
CC(C)(C)C(=O)COC(=O)c1cccc(NC(=O)c2ccco2)c1	inconclusive: 11.2 µM [activator, partial curve, poor fit]	–
CCOc1ccc(C(=O)N/N=C(\c2ccccc2)c2ccccn2)cc1	inconclusive: 50.1 µM [activator, single point]	–
CC(=O)OC1CC2C(C)(C)C(O)CC(O)[C@@]2(C)C2CC[C@@]3(C)C(=CC(=O)OC3c3ccoc3)[C@]12C (stereo not given in full)	inconclusive: 22.4 µM [activator, full curve]	–
CC(C)(C)c1ccc(S(=O)(=O)NC(=O)C2(C)CCN2C(=O)Cc2ccc(Cl)cc2Cl)cc1 (stereo not given)	inconclusive: 50.1 µM [activator, single point]	–
CCOc1cc(CNCCSc2nnnn2-c2ccccc2)cc(Cl)c1OC	inconclusive: 44.7 µM [activator, partial curve, poor fit]	–
Oc1c(I)cc(Cl)c2cccnc12	–	inactive: -5.26% [middle of 5 runs]
COC(=O)CNC(=O)C(Cc1ccccc1)NS(=O)(=O)c1ccc2c(c1)c(=O)n(C)c(=O)n2C (stereo not given)	inconclusive: 50.1 µM [activator, single point]	–
O=C(CSc1nnc(-c2ccccn2)o1)Nc1cccc(Cl)c1	inconclusive: 25.1 µM [activator, single point]	–
CC(=O)Oc1ccc(C2=NN(c3ccccc3)C(c3ccccc3)C2)cc1 (stereo not given)	inconclusive: 28.2 µM [activator, partial curve]	–
N#Cc1c2c(c(NCc3cccnc3)n3c1nc1ccccc13)CCC2	–	inactive: -3.93%
C#CCOc1c(Br)cc(/C=C2/C(=O)ON=C2C)cc1OC	–	inactive: -1.52%
